# Measured values published in publication PMC11995724, “Antibiotic target discovery by integrated phenotypic and activity-based profiling of electrophilic fragments” (Cell chemical biology, 2025).
# Out of some 3,200 compounds screened, about 110 (3.4%) showed an effect of 50% or more. The list shows a part of the results.
# Test system: T1, V. cholerae SAD30
# T1 construct: SAD30
# Set-up: species or system S. aureus MSSA476 (TSB) or V. cholerae SAD30 (LB); 384-well bacterial growth screen at 25 uM, OD600 relative to DMSO control
# Details: relative growth, OD600, LB; 25 µM; inhibitor
row,SMILES,% of control remaining
1,"C=CCNC(=O)C(C#N)=Cc1cccc(O)c1 [9-B09, 2-cyano-3-(3-hydroxyphenyl)-N-(prop-2-en-1-yl)prop-2-enamide]",85.9959%
2,"C=CC(=O)Nc1ccc(Cl)cc1F [1-I10, N-(4-chloro-2-fluorophenyl)prop-2-enamide]",88.0419%
3,"CCCCNC(=O)C(C#N)=Cc1ccc(F)cc1 [9-P13, N-butyl-2-cyano-3-(4-fluorophenyl)prop-2-enamide]",87.2196%
4,"N#CC(=Cc1cc(F)ccc1F)C(=O)Nc1ccc(Cl)cc1Cl [8-O08, 2-cyano-N-(2,4-dichlorophenyl)-3-(2,5-difluorophenyl)prop-2-enamide]",74.847%
5,"C=CC(=O)NCc1nonc1C [2-H07, N-[(4-methyl-1,2,5-oxadiazol-3-yl)methyl]prop-2-enamide]",91.1223%
6,"CC(Cl)C(=O)NCc1cnc(N2CCOCC2)s1 (stereo not shown) [6-P05, 2-chloro-N-{[2-(morpholin-4-yl)-1,3-thiazol-5-yl]methyl}propanamide]",102.531%
7,"CC(Cl)C(=O)NC(C)C(=O)Nc1ccc(-n2cncn2)cc1 (stereo not shown) [7-P07, 2-chloro-N-(1-{[4-(1H-1,2,4-triazol-1-yl)phenyl]carbamoyl}ethyl)propanamide]",79.9604%
8,"C=CC(=O)NCCC(=O)Nc1c(C)c(C)nn1C [2-G12, N-{2-[(1,3,4-trimethyl-1H-pyrazol-5-yl)carbamoyl]ethyl}prop-2-enamide]",77.3811%
9,"CCOc1ccc(NC(=O)CCl)cc1S(=O)(=O)N1CCCC1 [4-J16, 2-chloro-N-[4-ethoxy-3-(pyrrolidine-1-sulfonyl)phenyl]acetamide]",105.586%
10,"CCS(=O)(=O)N1CCc2cc(C(=O)CCl)ccc21 [10-E18, 2-chloro-1-[1-(ethanesulfonyl)-2,3-dihydro-1H-indol-5-yl]ethan-1-one]",27.8979%
11,"C=CC(=O)N1CCC(C(=O)NC(C)CC2CC2)CC1 (stereo not shown) [3-M05, N-(1-cyclopropylpropan-2-yl)-1-(prop-2-enoyl)piperidine-4-carboxamide]",99.853%
12,"N#CC(=Cc1ccc(-c2ccccc2)cc1)C(=O)N1CCCC1 [9-B08, 3-{[1,1'-biphenyl]-4-yl}-2-(pyrrolidine-1-carbonyl)prop-2-enenitrile]",81.7811%
13,"COc1ccc(NC(=O)CCl)cc1S(=O)(=O)N1CCCCC1 [4-B08, 2-chloro-N-[4-methoxy-3-(piperidine-1-sulfonyl)phenyl]acetamide]",110.244%
14,"C=CC(=O)NC(Cn1ccccc1=O)c1ccccc1 (stereo not shown) [2-B21, N-[2-(2-oxo-1,2-dihydropyridin-1-yl)-1-phenylethyl]prop-2-enamide]",101.776%
15,"C=CC(=O)N1CCC(C(=O)N(C)C(C)Cc2ccc(C)cc2)CC1 (stereo not shown) [2-F14, N-methyl-N-[1-(4-methylphenyl)propan-2-yl]-1-(prop-2-enoyl)piperidine-4-carboxamide]",87.108%
16,"COc1ccc(NC(=O)C(C#N)=Cc2ccc(-c3ccccc3)cc2)cc1 [8-D11, 3-{[1,1'-biphenyl]-4-yl}-2-cyano-N-(4-methoxyphenyl)prop-2-enamide]",76.7505%
17,"O=C(CCl)NCCc1cnn(-c2ccccc2)c1 [6-G22, 2-chloro-N-[2-(1-phenyl-1H-pyrazol-4-yl)ethyl]acetamide]",109.053%
18,"C=CC(=O)N1CCc2cc(C(N)=O)ccc21 [1-P03, 1-(prop-2-enoyl)-2,3-dihydro-1H-indole-5-carboxamide]",106.876%
19,"Cc1cc(C(=O)C(C)Cl)c(C)n1-c1ccccc1 (stereo not shown) [10-A06, 2-chloro-1-(2,5-dimethyl-1-phenyl-1H-pyrrol-3-yl)propan-1-one]",102.24%
20,"CC(C)(C)c1ccc(CC(=O)CCl)cc1 [10-G19, 1-(4-tert-butylphenyl)-3-chloropropan-2-one]",116.579%
21,"C=CC(=O)N1CCC(C(=O)NCc2cnn(-c3ccccc3)c2)CC1 [3-O14, N-[(1-phenyl-1H-pyrazol-4-yl)methyl]-1-(prop-2-enoyl)piperidine-4-carboxamide]",100.206%
22,"CC1CSc2ccc(Cl)cc2N(C(=O)CCl)C1 (stereo not shown) [5-J05, 2-chloro-1-(7-chloro-3-methyl-2,3,4,5-tetrahydro-1,5-benzothiazepin-5-yl)ethan-1-one]",108.942%
23,"CCN(Cc1ccc(C(F)(F)F)cc1)C(=O)CCl [7-H20, 2-chloro-N-ethyl-N-{[4-(trifluoromethyl)phenyl]methyl}acetamide]",79.4317%

row,SMILES,% of control remaining
1,"CSc1nsc(NC(=O)CCl)n1 [4-C13, 2-chloro-N-[3-(methylsulfanyl)-1,2,4-thiadiazol-5-yl]acetamide]",97.3043%
2,"Cc1ccc(F)c(N2CCC(NC(=O)CCl)CC2)c1 [5-M14, 2-chloro-N-[1-(2-fluoro-5-methylphenyl)piperidin-4-yl]acetamide]",83.2195%
3,"C=CC(=O)N1CCC(C(=O)NC(C)(C)CSC)CC1 [3-M14, N-[2-methyl-1-(methylsulfanyl)propan-2-yl]-1-(prop-2-enoyl)piperidine-4-carboxamide]",97.3828%
4,"CCN(CC)S(=O)(=O)c1cc(NC(=O)CCl)ccc1C [4-E09, 2-chloro-N-[3-(diethylsulfamoyl)-4-methylphenyl]acetamide]",97.6493%
5,"C=CC(=O)NC1(c2ccccc2)CCOC1 (stereo not shown) [3-P04, N-(3-phenyloxolan-3-yl)prop-2-enamide]",116.262%
6,"CC(Cc1c[nH]c2cc(F)c(F)cc12)NC(=O)CCl (stereo not shown) [5-I07, 2-chloro-N-[1-(5,6-difluoro-1H-indol-3-yl)propan-2-yl]acetamide]",96.8372%
7,"CC(Cl)C(=O)N1CCCCC1C1CCCN(C(=O)C(F)(F)F)C1 (stereo not shown) [6-F16, 2-chloro-1-[1'-(2,2,2-trifluoroacetyl)-[2,3'-bipiperidin]-1-yl]propan-1-one]",87.8188%
8,"O=C(CCl)Nc1cc(S(=O)(=O)N2CCCCC2)ccc1Cl [4-F09, 2-chloro-N-[2-chloro-5-(piperidine-1-sulfonyl)phenyl]acetamide]",100.755%
9,"O=C(CCl)C1CC12CCCCC2 (stereo not shown) [10-A19, 2-chloro-1-{spiro[2.5]octan-1-yl}ethan-1-one]",104.111%
10,"C=CC(=O)Nc1ccc(C(N)=O)cc1C [1-P06, 3-methyl-4-(prop-2-enamido)benzamide]",113.592%
11,"O=C(CCl)N1CCN(C(=O)CC(F)(F)F)CC1 [5-A08, 1-[4-(2-chloroacetyl)piperazin-1-yl]-3,3,3-trifluoropropan-1-one]",104.403%
12,"Cc1ccc(C=C(C#N)C(=O)NCCc2ccccc2)o1 [8-H12, 2-cyano-3-(5-methylfuran-2-yl)-N-(2-phenylethyl)prop-2-enamide]",59.7553%
13,"CN(C(=O)CCl)C(c1ccccc1)c1ccccc1 [5-H06, 2-chloro-N-(diphenylmethyl)-N-methylacetamide]",97.5097%
14,"CC(Cl)C(=O)Nc1ccccc1-c1ccccc1 (stereo not shown) [4-G14, N-{[1,1'-biphenyl]-2-yl}-2-chloropropanamide]",91.611%
15,"C=CC(=O)NCCc1cscn1 [2-G08, N-[2-(1,3-thiazol-4-yl)ethyl]prop-2-enamide]",90.0415%
16,"c1nc(N2CCSSCC2)c2c3c(sc2n1)CCCC3 [10-M22, 3-(1,2,5-dithiazepan-5-yl)-8-thia-4,6-diazatricyclo[7.4.0.0,2,7]trideca-1(9),2,4,6-tetraene]",79.3298%
17,"CCN(CC)S(=O)(=O)c1ccc(Cl)c(NC(=O)C(C)Cl)c1 (stereo not shown) [6-C20, 2-chloro-N-[2-chloro-5-(diethylsulfamoyl)phenyl]propanamide]",83.5719%
18,"Cc1ccc(-n2c(C)cc(C=C(C#N)C(=O)N3CCCCC3)c2C)cc1 [9-O21, 3-[2,5-dimethyl-1-(4-methylphenyl)-1H-pyrrol-3-yl]-2-(piperidine-1-carbonyl)prop-2-enenitrile]",81.1013%
19,"NC(=O)CSc1ccccc1NC(=O)CCl [4-A15, 2-{[2-(2-chloroacetamido)phenyl]sulfanyl}acetamide]",103.343%
20,"O=C(CCl)NCCc1ccn(C2CCCC2)n1 [7-L20, 2-chloro-N-[2-(1-cyclopentyl-1H-pyrazol-3-yl)ethyl]acetamide]",84.1897%
21,"N#CC(=Cc1ccc([N+](=O)[O-])cc1)C(=O)Nc1cccc2ncccc12 [9-K21, 2-cyano-3-(4-nitrophenyl)-N-(quinolin-5-yl)prop-2-enamide]",92.93%
22,"C=CC(=O)N1CCN(C(C)c2nc(C)no2)CC1 (stereo not shown) [3-M11, 1-{4-[1-(3-methyl-1,2,4-oxadiazol-5-yl)ethyl]piperazin-1-yl}prop-2-en-1-one]",96.1478%
23,"C=CC(=O)Nc1cnn(C2CCCC2)c1 [3-O21, N-(1-cyclopentyl-1H-pyrazol-4-yl)prop-2-enamide]",106.734%
